# Source: the RNAGym collection of RNA variant scans (doi:10.7554/elife.90254)
# Read counts are not given, so values of variants with three or more changes are uncertain.
# B1: LINE1-mini (parent)
# chain: GGCAGAGCUCAACACAGCGUGGCAAAGUGGCUGUGGCUAGACUGCC
# Variants of: B1
# Assay: self-cleavage, relative activity (ratio to wild type); higher = more cleavage; in vitro, sequencing; the parent is a self-cleaving ribozyme
row,Variant,self-cleavage
1,GACACAGCUCAAAACAGCGUGGCAAAUUGGCUGUGGCUAGACUGCC,0.03
2,GACACAUCUCAACACAGGGUGGCAAAGGGACUGUGGCAAGACUGCC,0.08
3,GACACAGCUCAACACAGCGUGGCAAAGUGGCUUUGGCUAGACAGCC,0.15
4,GACACAGCAAAACACAGCGUGGCAAAGUGGCUGUGGCUAGACUCCC,0.05
5,GACACAGCGCAACACAGCGUGGCAUAGUGGCUGUGGCUAGACUGCC,0.09
6,GACAUCGCUCAACACAGCGUGGCAAAGUGGCUGUGGCUAGACUGCC,0.22
7,GACAUAGCUCAACCCAGCCUGGCAAAAUGGCUGUGGCUCGACUGCC,0.02
8,GACAUAGCUCAAGACAGCGUGGCAACGUAGCUGUGGCUAAACUGCC,0.54
9,GACAUAGCUCAACACAGUGUGACAAAGUGGCUGUGGCUAGACUGCC,0.86
10,GACAUAGCACGACACAGCGUGGCAAAGAGGCUGUGGCUAGACUGCC,0.05
11,GACAUAGCGCAACACAGCGUGGCAAAGUGGCUGUGGCUAGACUGCC,0.27
12,GACAUAGCUCAACACAGCGCGGGAAAGCCGCUGUGCCUGGACUGCC,0.28
13,GACAGAACUCGACACAGCGUGGCCAAGUGGCUGUGGCUGGACUGCC,0.03
14,GACAGAACUCAACACAGCGUGGCAACGUGGCUGUGGCUAGAUUGCC,0.2
15,GACAGAACUCAACACAGCGUGGCAAAGUGGCUGUGGCUAGUCUGCC,0.26
16,GACAGAAAUCAAUAGAGAGUGGCAAAGUGGCUGUGGCUAGACUGCC,0.35
17,GACAGAACUCAACACAGAGUGGCAAAGUGGCUGUGGCUAGACUGCC,0.1
18,GACAGAACUCAACACAGCAUCGCAAAGUGGCUGUGGCUAGGCUGCC,0.28
19,GACAGAACUCAACACAGCUUGGCAAAGUGGCUGUGGUUAGAAUGCC,0.21

row,Variant,self-cleavage
1,GACAGAACACAACACAGCGUGGCAAACUCGCCGUGGCUAGACUGCC,0.31
2,GACAGAACUCAACACAGCGUGGCAAAGAGGCUGUGGCUAGACUGGC,0.47
3,GACAGACCUCUACACAGCGUGGCAAAGUGGCUGUGGCUAGACUGCC,0.01
4,GACAGACCUCUACGCAGCGUGGCAAAGUGGCUGUGGCUAGACUGCC,0.03
5,GACAGACCUCUACACAGCGUGGCAAAGUCGGUGUGGCUAGACUGCC,0.04
6,GACAGACCUCAGCGCAGCCUGGCAAAGUGGCUGUGGCUAGAAUGCC,0.08
7,GACAGACCUCAACCCAGCGUGGCAAGGUGGCUGUGGCUAGACUGCC,0.58
8,GACAGACCUCAACACGGCGUGGCAAAGUGGCUGGGGCUACACUGCC,0.21
9,GACAGACCUCAACACAGCGUGGCAACGUGGCUGUCGCUAGACUGCU,0.21
10,GACAGACCUCAACAUAGCGUGGCAAAGUGGCUGUGGCUAGACUGAC,0.4
11,GACAGACCUCAACACAGAGUGGCAAAGUGGCUGUGGCUAGACUGCC,0.02
12,GACAGACCUCAACACAGAGUGGCCAAGUGGAUGUGGCUAGACUCCC,0.05
13,GACAGACCUCAACACACCGUGGCAAAGUGGCUAUGGGUAGAGUGCC,0.05
14,GACAGACCUCAACACAGCGUUGCAAAGUGGAUGUGGCUAGACUGCC,0
15,GACAGACCUCAACACAGCGUGGCAAAGUCGCUGUGUCUACUCUGCC,0.03
16,GACAGACCACAACAUAGCGUGACAAAGUGGCUGUGGCUAGACUGAC,0.02
17,GACAGACCUCAACACAGCGCGGCAAAGUGGCUGUGGCUACACUGCC,0.02
18,GACAGAUAUCAACACAGCGUGGCAAAGUGGCUGUGGCUAGACUGCC,0.79
19,GACAGAUUUCAACACAGCGUGGCAAAGUGGCUGUGCCUAGACGGCC,0.3

row,Variant,self-cleavage
1,GACAGAUCUCAAAUCAGCGUUGCAAAGUGGCUGUGGCUAGUCUUCC,0.31
2,GACAGAUCUCAAGACAGCGUGGCAAAGUGGCUGUGGCAAGACUGCC,0.13
3,GACAGAUCUCAACACAGAGAGGCAAAGUGGCUGUGGCUAGACUGCC,0.05
4,GACAGAUCUCAACACAGUGUGACAAAGUGGCUGUGGCUAGACUGCC,0.03
5,GACAGAUCUCAACACAGCGUGGCAAAGUGGAUGUGGCGAGACUGCA,0.04
6,GACAGAUCUCAACACAGCGUGGCAAAGUGGUUGCGCCUAGACUGCC,0.05
7,GACAGAUCUCAACACAGCAUGGCAAAGUGGGUGUGGCUAGACUGCC,0.66
8,GACAGAUCUCAACACAGCCUGACAAAGUGGCUGUGGCUAGACUGCC,0.06
9,GACAGAUCUCAACACAGCGGGGCAAAGUCGGUGUGGCUAAACUGCC,0.08
10,GACAGAGCUCAACACAACGUGGCAAAGUGGCUGUGGAUAAACUGCC,0.02
11,GACAGAGCUCAACACAACGUGGCAAAGUGACUGUGGCUAGACUGCC,0.19
12,GACAGAGCUCAACACAACGUGGCAAAGUGGCUGAGGCUAGACUGCC,0.04
13,GACAGAGCUCAACACACCGUGGCUUAGUGGCUGUGGCUAGACUGCC,0.53
14,GACAGAGCUCAACACACCGUGGCAAAGUGGCUGUGGCUAGGCUGCC,0.35
15,GACAGAGCUCAACACACUGUGGCAAAGUGGCUGUUGCUAGACUGCC,0.08
16,GACAGAGCUCAACACACCGUGGCAAAGUGGCUGUGGCUAGAAUGCC,0.19
17,GACAGAGCUCAACACACCGUGGCAAAGUGUCUGUUGCUAUACUGCC,0.07
18,GACAGAGCUCAACACACCGUGGCAAAGUGGCUUUGGGUAGACUGCC,0.08
